Reference: PubChem BioAssay AID686978 (National Center for Advancing Translational Sciences (NCATS), 2013)
In all, about 420,000 compounds went through this assay and about 64,000 (15%) were called active. The inconclusive results got no clear call from the source; some entries with a clear call stand among them for comparison. The call rests on the fitted dose curve; in most records, active means well fitted inhibition curve with a large enough effect; inconclusive means small, poorly fitted or top-dose-only effect; inactive means flat fitted curve, though single readings scatter. Potencies of inconclusive entries are left out as doubtful fits.
Potency means the concentration at half of the fitted maximal effect; tags describe the fitted curve by direction and shape.

Experiment: qHTS for Inhibitors of human tyrosyl-DNA phosphodiesterase 1 (TDP1): qHTS in cells in absence of CPT; further: nearly all actives have a fitted effect of over 55% in size
Conditions: DT40 Tdp1-/- hTDP1 cells, no CPT, ATP luminescence, 48 h; series mostly up to 46.2 µM
Method in brief: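 A cellular qHTS used chicken DT40 cells lacking endogenous Tdp1 but carrying stably transfected human TDP1. Compounds were applied without camptothecin, and cell growth kinetics were judged by ATP-dependent luminescence after ≥48 hr.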
For `O=C(NC1CCCCC1)c1cc2nc3c(c(C(F)(F)F)n2n1)CCCC3`, the Potency was active: 20.6 µM.
For `O=C(COc1ccccc1)NCC(=O)N/N=C/c1ccc(Br)cc1`, the Potency was “inactive”.
With `Cn1c(SCc2ccc3c(c2)OCO3)nnc1-c1ccccc1` the Potency was inconclusive [inhibitor, single point].
In the case of `COc1ccc(N2CCN(S(C)(=O)=O)CC2)cc1`, the Potency is reported as “inactive”.
With `CNS(=O)(=O)c1cccc(C(=O)OCC(=O)N(Cc2ccccc2)C(C)(C)C)c1` the Potency was “inactive”.
With `O=C(Nc1ccncc1)C1c2ccccc2Oc2ccccc21` the Potency was inconclusive [inhibitor, partial curve].
For `COc1ccc(C2=CSC3=NCCN23)cc1F`, the Potency was “inactive”.
In the case of `Cc1ccc(OCC(O)CN2CCN(CC(O)COc3ccc(C)cc3)CC2)cc1` (stereo not drawn), the Potency is reported as inconclusive [inhibitor, single point].
In the case of `Cc1cccc(N(C(=O)Cc2cccs2)C(C(=O)NCc2ccco2)c2ccncc2)c1` (stereo not drawn), the Potency is reported as inconclusive [inhibitor, partial curve].
With `COc1ccc(C(=O)CC(=O)c2ccccc2O)cc1` the Potency was inconclusive [inhibitor, single point].
For `O=C(NCCCN1CCOCC1)c1cc(S(=O)(=O)N2CCN(c3ccccc3)CC2)ccc1Cl`, the Potency was inconclusive [inhibitor, partial curve].
With `CCOC(=O)C1=C(CNCc2ccccc2)NC(=O)NC1c1ccc(C)cc1` (stereo not drawn) the Potency was inconclusive [inhibitor, single point].
In the case of `Cc1cccn2c(=O)c3cc(C#N)c(=O)n(-c4c(C)n(C)n(-c5ccccc5)c4=O)c3nc12`, the Potency is reported as inconclusive [inhibitor, partial curve, poor fit].
In the case of `O=C(COc1ccc(Cl)cc1Cl)N(C1CCCCC1)C1CCS(=O)(=O)C1` (stereo not drawn), the Potency is reported as “inactive”.
For `O=C(Nc1cccc(F)c1)N1CCC2(CC1)CCN(S(=O)(=O)c1ccccc1)CC2`, the Potency was inconclusive [inhibitor, single point].
For `CC1CC(C)CN(C(=O)CCCn2c(=O)c3cccn3c3cccnc32)C1` (stereo not drawn), the Potency was “inactive”.
In the case of `CCc1nc2ccc(C(=O)NCc3ccc(C)o3)cc2nc1CC`, the Potency is reported as “inactive”.
For `CC(=O)c1c(C)c(C)c2n1CCn1c(C)ccc1-2`, the Potency was inconclusive [inhibitor, single point].
In the case of `COc1ccc(-n2c(=O)c3c(C)c(C)sc3n(Cc3ccc(F)cc3)c2=O)c(OC)c1`, the Potency is reported as active: 13 µM.
For `O=C(C1COc2ccccc2O1)N1CCc2ccccc2C1` (stereo not drawn), the Potency was inconclusive [inhibitor, single point].
With `Cc1c(C(=O)N2CCCCC2)oc2ccc(Br)cc12` the Potency was inconclusive [inhibitor, single point].
In the case of `CCOC(=O)c1ccccc1NC(=O)COC(=O)C(Cc1c[nH]c2ccccc12)NC(C)=O` (stereo not drawn), the Potency is reported as inconclusive [inhibitor, single point].
For `O=C(c1ccc(Cl)cc1)N1CCN(c2ncccn2)CC1`, the Potency was “inactive”.
For `COc1cc(/C(C)=N/NC(=S)NC(C)C)cc(OC)c1OC`, the Potency was active: 1.16 µM.
For `COC(=O)c1sc(-c2ccccc2)cc1NC(=O)C1CC1`, the Potency was inconclusive [inhibitor, single point].
For `Cc1ccc(NC(=O)c2ccc(OC(F)(F)F)cc2)cc1S(=O)(=O)N(C)C`, the Potency was active: 25.9 µM.
With `COc1ccc(C2=CC(=O)C[C@H](c3ccc(F)cc3)C2)cc1F` the Potency was inconclusive [inhibitor, single point].
For `O=C(Nc1cccc(S(=O)(=O)N2CCOCC2)c1)C1CC(=O)N(c2ccc3c(c2)OCCO3)C1` (stereo not drawn), the Potency was “inactive”.
With `Cc1cccc(NC(=O)/C=C/c2ccc([N+](=O)[O-])s2)c1` the Potency was active: 2.59 µM.
For `O=C1CSC(=S)N1/N=C/c1ccc(C(F)(F)F)cc1`, the Potency was inconclusive [inhibitor, single point].
With `COc1ccc(CN(C)C(C)C(=O)NC2CCCc3ccccc32)cc1` (stereo not drawn) the Potency was inconclusive [inhibitor, single point].
For `COc1ccc(C2C(C#N)=C(N)N(c3ccccc3C#N)C3=C2C(=O)CCC3)cc1CN1CCCC1` (stereo not drawn), the Potency was inconclusive [inhibitor, single point].
In the case of `NC(=O)c1ccc(OCC(=O)N2CCNC2=O)cc1`, the Potency is reported as “inactive”.
With `Cc1ccc(NC(=O)C/C(N)=N/OC(=O)Nc2cccc(C)c2)cc1` the Potency was inconclusive [inhibitor, single point].
In the case of `O=C(COC(=O)C12CC3CC(CC(Br)(C3)C1)C2)Nc1ccc2[nH]c(=O)[nH]c2c1`, the Potency is reported as “inactive”.
With `CCCc1cc(C(=O)N/N=C/c2cccn2C)cs1` the Potency was “inactive”.
In the case of `COc1cc(C(=O)OCC(=O)NC2CCCC2)cc(NC(=O)c2ccco2)c1OC`, the Potency is reported as inconclusive [inhibitor, full curve, poor fit].
In the case of `Cc1cc(=O)n(C(C)C(=O)NCc2ccccc2Cl)c2c1c(C)nn2-c1ccccc1` (stereo not drawn), the Potency is reported as “inactive”.
With `CN(C)C(=O)CCc1ccc2c3c([nH]c2c1)[C@]1(C)[C@@H](C(=O)N2CCCCC2)C[C@H](CC(=O)NCc2ccco2)C(=O)N1CC3` the Potency was “inactive”.
For `CC1(C)CC(=O)C(C(c2cc([N+](=O)[O-])ccc2Cl)C2C(=O)CC(C)(C)CC2=O)C(=O)C1`, the Potency was active: 5.8 µM.
In the case of `COc1cccc2c(Cl)c(CC=C(Cl)Cl)c(C)nc12`, the Potency is reported as “inactive”.
In the case of `CCOc1ccccc1NC(=O)C1CCN(S(=O)(=O)Cc2ccccc2)CC1`, the Potency is reported as “inactive”.
With `CC1CN(C(=O)c2ccc(COc3ccccc3Br)o2)CC(C)O1` (stereo not drawn) the Potency was inconclusive [inhibitor, single point].
With `O=C(Nc1cccc2nsnc12)c1cc2c(cc1Cl)Sc1nccn1S2(=O)=O` the Potency was inconclusive [inhibitor, single point].
With `CC(=O)N1c2ccccc2NC2=C(C(=O)CCC2)C1c1ccco1` (stereo not drawn) the Potency was inconclusive [inhibitor, single point].
For `COc1ccc(NC(=O)c2cccs2)cn1`, the Potency was “inactive”.
For `Cn1cc(S(=O)(=O)Nc2ccc3c(c2)OCCO3)cn1`, the Potency was “inactive”.
In the case of `Cc1ccc(S(=O)(=O)N(C)c2ccc(OC(C)C(=O)N3CCCC3)cc2)cc1C` (stereo not drawn), the Potency is reported as inconclusive [inhibitor, partial curve].
